# In PubChem BioAssay AID1347073 (National Center for Advancing Translational Sciences (NCATS), 2019):
# The whole screen tested about 45,000 compounds, of which about 200 (0.44%) were called active. About 7% were inconclusive and are not listed. Calls follow the shape of the dose curve; as a rule, active = well fitted activation curve with a large enough effect; inconclusive = small, poorly fitted or top-dose-only effect; inactive = no such curve, though single readings can be large or run the other way. This is one part of the list.
# Test: qHTS of TDP-43 Inhibitors: NCGC Sytravon Library Screen; also: 0% is about no effect; nearly all actives have a fitted effect of over 55% in size
# Details: yeast TDP-43 toxicity rescue, BacTiter-Glo growth, 24 h; series mostly up to 46.1 µM; growth rescue (activation): at the top concentration
# In short: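 TDP-43-expressing yeast, pregrown in raffinose, seeded at OD600 0.02 in galactose medium with compound for 24 hr at 30 deg C. Growth read by BacTiter-Glo luminescence, so rescue of toxicity appears as activation.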
row,SMILES,growth rescue (activation)
1,COc1ccccc1NC(=O)C1CCN(C(=O)C2CC(=O)N(c3ccc(C)cc3)C2)CC1 (centres undefined),inactive: -2.84%
2,O=C(CSc1nnnn1C1CCCC1)N1CCOCC1,inactive: -9.11%
3,Cc1ccc(NC(=O)Cn2nc(C(=O)O)c3ccccc3c2=O)cc1S(=O)(=O)N1CCCCC1,inactive: 8.73%
4,O=C(C1CCN(Cc2ccc(F)cc2)CC1)N(CCc1ccccc1)Cc1ccccc1,inactive: -12.8%
5,Nc1ccc(N2CCCCC2)c(S(=O)(=O)Nc2ccccc2Cl)c1,inactive: -11.5%
6,CCOC(=O)CN1C(=O)c2ccccc2Sc2ncccc21,inactive: 11.9%
7,CC(C)(C)c1nnc(NC(=O)Cc2ccccc2[N+](=O)[O-])s1,inactive: -15.4%
8,O=[N+]([O-])c1cc(/C=N/N2CCCCC2)ccc1Cl,inactive: 5.13%
9,Cc1ccccc1N(CC(=O)NC1CCCCC1)C(=O)c1csnn1,inactive: 10.7%
10,CCOC(=O)c1sc(C)c2c(=O)n(CCCN3CCOCC3)cnc12,inactive: 1.59%
11,CCOC(=O)c1c(C)[nH]c(C)c1C(=O)CSc1nc(N)cc(N)n1,inactive: 9.5%
12,CCOc1ccccc1N(C(=O)Nc1ccc(Cl)cc1)C1=NCCS1,inactive: -3.82%
13,COc1ccc(C(=O)N(CCc2ccccc2)Cc2cccs2)c(OC)c1,inactive: 13%
14,O=C(NC1CCCCC1)C(c1ccccc1)N(C(=O)c1csnn1)C1CC1 (centres undefined),inactive: 1.62%
15,CCNC(=S)Nc1cc(OCC)c(NC(=O)c2ccco2)cc1OCC,inactive: 21%
16,CS(=O)(=O)N(CC(=O)Nc1ccccc1)c1cccc(Cl)c1Cl,inactive: -2.46%
17,Cc1ccccc1-c1nnc(SCC(=O)N2CCCC2)o1,inactive: 10.3%
18,COC(=O)CSCC(=O)Nc1cc2c(cc1C(C)=O)OCO2,inactive: -3.69%
19,CCOC(=O)Cc1csc(NC(=O)Cn2c(=O)oc3ccccc32)n1,inactive: -48.3%
20,Cc1cccc(OCC(=O)NC2CCCC2)c1,inactive: -1.08%
21,N#Cc1ccccc1S(=O)(=O)N1CCN(c2cnccn2)CC1,inactive: 0.84%
22,COc1cc(-c2noc(CCCC(=O)Nc3ccc(C(N)=O)cc3)n2)cc(OC)c1OC,inactive: 14.7%
23,COc1ccc(C(C(=O)NC2CCCCC2)N(C(=O)c2ccccn2)c2cccnc2)c(OC)c1 (centres undefined),inactive: 8.48%

row,SMILES,growth rescue (activation)
1,COc1ccc(CCNC(=O)c2coc3ccccc3c2=O)cc1OC,inactive: 10.7%
2,COc1ccc(C(=S)N2CCC(C(N)=O)CC2)cc1Br,inactive: -10%
3,CCN(Cc1ccccc1)C(=O)C1CCN(C/C(C)=C/c2ccccc2)CC1,inactive: 7.19%
4,O=C(Nc1nc(-c2ccc(S(=O)(=O)N3CCOCC3)cc2)cs1)c1ccccc1,inactive: -12.7%
5,COc1ccc(CNc2nc(-c3ccccc3)nn2C(=O)c2ccc([N+](=O)[O-])cc2)cc1,inactive: 24.2%
6,COc1ccc(Br)cc1CNC(=O)C(C)n1nc(C)n2c(cc3occc32)c1=O (centres undefined),inactive: 10.3%
7,Cc1ccc(C)c(S(=O)(=O)N(C(=O)c2ccncc2)c2ccc(OC(=O)c3ccncc3)cc2)c1,inactive: 6.31%
8,CN1CCCN=C1/C=C/c1cccs1,inactive: -34.1%
9,CSCCC(NC(N)=O)C(=O)Nc1ccc(F)c(Cl)c1 (centres undefined),inactive: 4.23%
10,CCNC(=O)C(C)NC(=O)C1=NN(c2ccccc2)C(=O)CC1 (centres undefined),inactive: -16.8%
11,Nc1nc(-c2ccco2)nn1C(=O)c1ccc([N+](=O)[O-])cc1,inactive: -3.75%
12,O=C1CCCN1CCCNc1nc(NCc2ccccc2)nc2ccsc12,inactive: 5.82%
13,O=C(O)c1ccc(-n2cccn2)nc1,inactive: 8.08%
14,Cc1cc(S(=O)(=O)N2CCN(CC(=O)N(C)Cc3ccccc3)CC2)ccc1Br,inactive: 7.6%
15,Cc1cccc(CN2CCN(Cc3cccc(-n4cccn4)c3)CC2CCO)n1 (centres undefined),inactive: -6.09%
16,O=C(COC(=O)COc1cc(Cl)c(Cl)cc1Cl)NC1CC1,inactive: -11.1%
17,Cc1cc2c(SCC(=O)Nc3cccc(O)c3)ncnc2s1,inactive: 2.85%
18,CCCNC(=O)C1(C)CCCN(C(=O)c2cccc(OC(C)=O)c2C)C1 (centres undefined),inactive: 14.5%
19,Cc1ccc(S(=O)(=O)NCCCC(=O)O)cc1,inactive: 8.21%
20,CC(C)CNC(=O)C(=O)NCc1ccccc1,inactive: -15.6%
21,Cc1cccc(N2CCN(c3ccc(C(N)=O)cc3[N+](=O)[O-])CC2)c1C,inactive: 12.1%
22,CC(C)CC(C(=O)Nc1ccccc1)N1C(=O)C2C3C=CC(C3)C2C1=O (centres undefined),inactive: -0.608%
23,Cc1cccc(NC(=O)C2CCCN(S(=O)(=O)c3cccc4nonc34)C2)c1 (centres undefined),inactive: 4.5%

row,SMILES,growth rescue (activation)
1,Cc1ccc(Nc2nnc(SC(C)C(=O)Nc3c(C)n(C)n(-c4ccccc4)c3=O)s2)cc1 (centres undefined),inactive: 5.55%
2,CN(c1ccc(OCC(=O)N2CCOCC2)cc1)S(=O)(=O)c1ccc(F)cc1,inactive: 10%
3,CNc1cccc(-c2cccc(O)c2)n1,inactive: -11.8%
4,O=C(NCc1ccc2c(c1)OCO2)c1nc(S(=O)(=O)Cc2ccccc2)ncc1Cl,inactive: 9.46%
5,O=C(COC(=O)/C=C/c1cccc(C(F)(F)F)c1)Nc1cccc2ccccc12,inactive: 7.24%
6,COc1ccc(-n2[nH]c(C)cc2=O)cc1,inactive: -0.234%
7,COc1ccc(/C=C(\C#N)C(=O)NCc2ccccc2)cc1,inactive: 19.9%
8,COc1cc(C(=O)Nc2nnc(Cc3ccccc3)s2)cc(OC)c1OC,inactive: 6.42%
9,Cc1cnc(C)c(N2CCN(Cc3nc(-c4cccc(F)c4F)oc3C)CC2)n1,inactive: -6.11%
10,O=C(O)CCN1C(=O)c2ccc(NC(=O)CSc3ccccc3)cc2C1=O,inactive: 8.77%
11,Cn1ccnc1SCC(=O)Nc1cc(S(=O)(=O)N2CCOCC2)ccc1Cl,inactive: 7.59%
12,Cc1ccc(NC(=O)c2cccc(N3C(=O)CCC3=O)c2)nc1,inactive: 10.9%
13,O=C(CSc1nnc(COc2ccccc2Cl)o1)NC(=O)NCc1ccco1,inactive: 24.8%
14,CCOc1cc(/C=C/c2cc(C(=O)O)c3ccccc3n2)ccc1O,inactive: 6.93%
15,CC(C)C(=O)Nc1ccc(NC(=O)c2cccc3c(Br)cccc23)cc1,inactive: -7.52%
16,CCOC(=O)c1c(-c2ccc(-c3ccccc3)cc2)csc1NC(=O)c1cccc(N2C(=O)CCC2=O)c1,inactive: 4.72%
17,CCN(CC)c1ccc(O)c(C=Nc2ccc(C)c(C)c2)c1,inactive: -4.56%
18,COc1cc(S(=O)(=O)NC(Cc2c[nH]c3ccccc23)C(=O)O)ccc1NC(C)=O (centres undefined),inactive: 12.7%
19,CCOc1ccccc1NC(=S)N1CCN(c2ccccc2F)CC1,inactive: 19.1%
20,N#CC(C#N)=Cc1cc2ccccc2nc1N1CCOCC1,inactive: -0.186%
21,Cc1noc(NS(=O)(=O)c2ccc(NS(=O)(=O)c3ccc(Cl)cc3)cc2)c1C,inactive: 7.05%
22,CCNc1nc(Oc2ccc(=O)n(-c3ccccc3)n2)nc(N(C)C)n1,inactive: 3.45%
23,O=C(Nc1ccc(S(=O)(=O)NCc2cccnc2)cc1)c1ccccc1Cl,inactive: 20.3%
